PMC7819943, “Rice protein-binding microarrays: a tool to detect cis-acting elements near promoter regions in rice”
This is one part of the list.

The sequences below were run against T1, OsWOX13 (Oryza sativa, UniProt Q5QMM3 1-267) (assay: protein-binding microarray (RPBM); PBS, 2% BSA, 51.3 ng/ul salmon testes DNA, 50 uM zinc acetate, 200 nM TF, 25 C, 1 h; high values mean tight binding). Conditions: protein: recombinant; tags: N-terminal polyhistidine and DsRed monomer fusion (pET32a); label: CyDye5-dUTP incorporated in the synthesized complementary strand; 3' TTTTT single-stranded linker to array surface; dsDNA, one strand shown.
T1 sequence: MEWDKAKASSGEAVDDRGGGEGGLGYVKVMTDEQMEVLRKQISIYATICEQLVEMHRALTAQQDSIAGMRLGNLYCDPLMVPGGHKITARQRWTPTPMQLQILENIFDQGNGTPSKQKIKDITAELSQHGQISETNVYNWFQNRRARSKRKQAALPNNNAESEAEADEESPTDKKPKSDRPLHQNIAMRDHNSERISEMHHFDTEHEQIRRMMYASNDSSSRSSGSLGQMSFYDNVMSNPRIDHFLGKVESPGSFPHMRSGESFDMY
How it was run: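 The binding signal is fluorescence intensity per feature, in arbitrary units, read on an Axon 4000B scanner. Polyhistidine- and DsRed-tagged transcription factors (N-terminal fusions) from E. coli BL21-CodonPlus were purified on Ni–NTA and applied at 200 nM for 1 h at 25 °C to a double-stranded, BSA-blocked custom Agilent array in buffer with 50 µM zinc acetate.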

Sequence	binding signal
TACTCCTGTTGATAGGTATATTGATCTGAATCATCTGGTACGGAGTCACCTAGTGCAG	3790 fluorescence intensity (a.u.)
TTTTAATCGAAACTTAATTTCAAGCTGTATCCAAATTTCGCGGAGTCACCTAGTGCAG	7150 fluorescence intensity (a.u.)
CATAACTAATTAGTAACACAAAGAATATTGATTAGATGATCGGAGTCACCTAGTGCAG	43100 fluorescence intensity (a.u.)
TAAATGATTTGAAGCTAGTATATAGCTATACTATTAAACTCGGAGTCACCTAGTGCAG	12800 fluorescence intensity (a.u.)
AATAATTTTAGCTGTGTTGTCTTGGCAGGCGCCGGCGTGTCGGAGTCACCTAGTGCAG	4080 fluorescence intensity (a.u.)
TATTGATTTGTTCATTTAACCTGATGACTGTCAGAATTCTCGGAGTCACCTAGTGCAG	34700 fluorescence intensity (a.u.)
TGATGTAATAATTACTATAGCTCACTGACGTAGGTTTATTCGGAGTCACCTAGTGCAG	5620 fluorescence intensity (a.u.)
CAAAATTGGAAAATAATTTGGAAAAGTAAATCTCCTCCGACGGAGTCACCTAGTGCAG	27000 fluorescence intensity (a.u.)
TCTTAAATTGGTACAGTAATACTCTCTCCGTATTCGTATTCGGAGTCACCTAGTGCAG	24800 fluorescence intensity (a.u.)
AGCATCCAATCATGTAACCAGCTGCATAATTTACATGTGTCGGAGTCACCTAGTGCAG	22600 fluorescence intensity (a.u.)
TGGTGGTGGTGGTGGTAGGGTTAGGGGTAGGAGGGGTCTCCGGAGTCACCTAGTGCAG	8890 fluorescence intensity (a.u.)
ATTATGTCATGTTTGGATTGATCCACCTAGCTTTACACATCGGAGTCACCTAGTGCAG	3910 fluorescence intensity (a.u.)
CACATCAATCTATCTCCCTTCCTCCTCTCTCTCTCTCACTCGGAGTCACCTAGTGCAG	9570 fluorescence intensity (a.u.)
CAGGGATCACACTCTAATCACGGTCATTAATCCCACTCATCGGAGTCACCTAGTGCAG	3880 fluorescence intensity (a.u.)
TCTTGATAGCTATTTAGATTGAAGGATCTGATTTCTTTCTCGGAGTCACCTAGTGCAG	38200 fluorescence intensity (a.u.)
GTAATAATAATAATAATAAATAAATAAATTGTTGAACTAGCGGAGTCACCTAGTGCAG	7300 fluorescence intensity (a.u.)
TTACTAATTTAGTGATGTATATATAGGCAGTAGGCACATACGGAGTCACCTAGTGCAG	13600 fluorescence intensity (a.u.)
TGATCAATCAAGAAGACGATCGTGCCGATATCATGGCACCCGGAGTCACCTAGTGCAG	19700 fluorescence intensity (a.u.)
CTTATGCTGATTAATTAGGGCTAATGAGCTATGCATGCAACGGAGTCACCTAGTGCAG	33000 fluorescence intensity (a.u.)
GTGAGGGGATTGAGAAGATTGGGAAGATACGCAAAACGAGCGGAGTCACCTAGTGCAG	16100 fluorescence intensity (a.u.)
TAATAACAAAATAAATTACAGTTTCCGCCTAGAAACTGTGCGGAGTCACCTAGTGCAG	3440 fluorescence intensity (a.u.)

Sequence	binding signal
AACTTTGACAAAATAATTACAGTAGTATGATATTTACTTCCGGAGTCACCTAGTGCAG	9130 fluorescence intensity (a.u.)
CATTTGATTTTGATTTGATCGATACCATTCCGCTTTCACCCGGAGTCACCTAGTGCAG	28300 fluorescence intensity (a.u.)
ATGCTAATACTTGACATAATTAGGTAGAGCTCTGAGGAGCCGGAGTCACCTAGTGCAG	11900 fluorescence intensity (a.u.)
AGAGGATTGATGAATGCAGCTGCAAGCACAGCACGCAGTACGGAGTCACCTAGTGCAG	13600 fluorescence intensity (a.u.)
GATAGATAGATAGATAGAAGATTGCATACTTACTGTATGACGGAGTCACCTAGTGCAG	25600 fluorescence intensity (a.u.)
TACCATATTTATGAATGCACTAATTGGTTAACCCGCAAATCGGAGTCACCTAGTGCAG	12700 fluorescence intensity (a.u.)
AATAACTGAACAATCAATCGCACGCCATCGAGAAGTAGACCGGAGTCACCTAGTGCAG	24000 fluorescence intensity (a.u.)
TTGGCAATAATCACACCAATCATATCACAGTTGTCGTTGACGGAGTCACCTAGTGCAG	16400 fluorescence intensity (a.u.)
GTATGATTACTATTGGAATTTTATCTTATCTCTACTATTACGGAGTCACCTAGTGCAG	29900 fluorescence intensity (a.u.)
TGAAAATTATATGATTATAATCTATTTTGTTTTAATTTATCGGAGTCACCTAGTGCAG	24800 fluorescence intensity (a.u.)
GTGATTAATAAATAATATACACCTCATATTTAGTGTTGGTCGGAGTCACCTAGTGCAG	26100 fluorescence intensity (a.u.)
TATATATATATATATATATATATATATATATTTAGATATGCGGAGTCACCTAGTGCAG	32800 fluorescence intensity (a.u.)
ATAGATTAAACAATAACAGGCTCACTATAATTTATGTTATCGGAGTCACCTAGTGCAG	18300 fluorescence intensity (a.u.)
TCTAATTAAGTGTTCATCTTGGCTTCCAAACCACTTCGGGCGGAGTCACCTAGTGCAG	17700 fluorescence intensity (a.u.)
AACTTAATTAGCGGCGAATAGTCGTGACACGTATTTTGTGCGGAGTCACCTAGTGCAG	40100 fluorescence intensity (a.u.)
GACTTTCGAACAAATTAGACTAATTTATATGAAATTTATGCGGAGTCACCTAGTGCAG	17700 fluorescence intensity (a.u.)
GATAGATAGATATGGACGCTCAGCTGTTCAGTTTGCCTGGCGGAGTCACCTAGTGCAG	8250 fluorescence intensity (a.u.)
TAAACTGTAATTATAGTCTTGTAGAACTAGCCAATAGTTACGGAGTCACCTAGTGCAG	10800 fluorescence intensity (a.u.)
CAATCACATTTTATGATTTTATCACAAGATTTTGTAGTAGCGGAGTCACCTAGTGCAG	4190 fluorescence intensity (a.u.)
TAGAGAATTGATTGGGCTTTTGGTTGACTTCTTTGACACGCGGAGTCACCTAGTGCAG	40200 fluorescence intensity (a.u.)
GAGTAATTTATTAGCACAAACATTAACAGTGTTCATAGCGCGGAGTCACCTAGTGCAG	20300 fluorescence intensity (a.u.)

Sequence	binding signal
GAGATTTAATAGAATAAATTGGGCCTAGCCCAATTATTCTCGGAGTCACCTAGTGCAG	3970 fluorescence intensity (a.u.)
CAAGTGAAAGTTGATTGACCTAAGATTTCACGAGTTTGACCGGAGTCACCTAGTGCAG	22200 fluorescence intensity (a.u.)
GGTGTGATGGAAAAGTTGAAAGTATTATGTTTTGGAACCTCGGAGTCACCTAGTGCAG	6430 fluorescence intensity (a.u.)
CAGGGCATAATTAATATATACCTACCAAAGCAGTAACTTCCGGAGTCACCTAGTGCAG	5200 fluorescence intensity (a.u.)
CATCAATCATTAATGGTTGCGACCAGTTACTCCCTCTGTCCGGAGTCACCTAGTGCAG	45500 fluorescence intensity (a.u.)
TGGTACAGATCTGTTAGTAAATTTACATGCCCTAATATTACGGAGTCACCTAGTGCAG	3340 fluorescence intensity (a.u.)
ATGAAATTTGTTAGTTGATGTGCACGGTATGTATATGATACGGAGTCACCTAGTGCAG	7600 fluorescence intensity (a.u.)
TAAAATAAATTATAGATTTTGCCTGTAAACTGCGAAACGACGGAGTCACCTAGTGCAG	9990 fluorescence intensity (a.u.)
GTAACAATTAAATCTTTATAACAAGATCTCACATGATTATCGGAGTCACCTAGTGCAG	4580 fluorescence intensity (a.u.)
GCGTAAACGTGACATAAAATGCACAAATGGGAAGTCTTTGCGGAGTCACCTAGTGCAG	3260 fluorescence intensity (a.u.)
GCTAATTATACCACTCGAGCCATTGGTTTCGGCAACAATTCGGAGTCACCTAGTGCAG	19700 fluorescence intensity (a.u.)
TCTCGTTGATTTCTTTTCCCTTTGCCAGCTTTCGCTTTTCCGGAGTCACCTAGTGCAG	9170 fluorescence intensity (a.u.)
TTTTAAAACTGATTTATAATCAAAGGTTCTAATGTTTGACCGGAGTCACCTAGTGCAG	24900 fluorescence intensity (a.u.)
TCGCTCTGATTTGATTTTGGAAATGGTGGTAAAGCTAATGCGGAGTCACCTAGTGCAG	32300 fluorescence intensity (a.u.)
CAGACCAATCAGTGCACGCAGAGCTTCTTCTTCCTTCTTCCGGAGTCACCTAGTGCAG	6430 fluorescence intensity (a.u.)
ACTACAATAGATTAGCTGTAAAATATCAGAGATTAATGCACGGAGTCACCTAGTGCAG	8560 fluorescence intensity (a.u.)
TTCAATTGATATAGACACAGATCTATGTGATTCACTGACACGGAGTCACCTAGTGCAG	21700 fluorescence intensity (a.u.)
AATGCAATTTGCAATAATTATATCAGTGCCAAATCCCATGCGGAGTCACCTAGTGCAG	16200 fluorescence intensity (a.u.)
AGTTACAGTGTAATTTATGAAACTTACACTGTAACTTTTGCGGAGTCACCTAGTGCAG	5490 fluorescence intensity (a.u.)
GTTTTGTGATTGAGGGATGTTATTCGACAAAAGGCAAGAGCGGAGTCACCTAGTGCAG	29600 fluorescence intensity (a.u.)
TCTAAATCATTTTAATCATGGTACAGATCTACTGATAATACGGAGTCACCTAGTGCAG	7740 fluorescence intensity (a.u.)

Sequence	binding signal
CTCCCGCTAATTTGCTCATCCGACCAGCCAAACTGTCGCCCGGAGTCACCTAGTGCAG	23600 fluorescence intensity (a.u.)
ATCTAAATGAAAATCTAGACTATTTGGGACAGCTGGGAGACGGAGTCACCTAGTGCAG	6090 fluorescence intensity (a.u.)
CGCTCCCAATTGACACCTTGAATTTATTTTGTCAGGATTGCGGAGTCACCTAGTGCAG	15700 fluorescence intensity (a.u.)
ATCGTTAATAGACACATGAGGGTCCGCATGTTATAGATAGCGGAGTCACCTAGTGCAG	12100 fluorescence intensity (a.u.)
TTATTTGATGATGATTTAATATCAGAATTAAGTAGGCCGTCGGAGTCACCTAGTGCAG	27700 fluorescence intensity (a.u.)
GAAATTAAACTAATATTTCGGCCCATCAAGGGCTCGCTTGCGGAGTCACCTAGTGCAG	8580 fluorescence intensity (a.u.)
GAGCTACTAGATTGGCTATAGATGAACTGGAGCTAGTAGTCGGAGTCACCTAGTGCAG	16100 fluorescence intensity (a.u.)
GCCTTACTCACGGTGATTAGTTTAACCCCATCCTTTGGTTCGGAGTCACCTAGTGCAG	9330 fluorescence intensity (a.u.)
GCTATATTCAAATTAATGAAATTTCATCTAGTATTCTCTACGGAGTCACCTAGTGCAG	8200 fluorescence intensity (a.u.)
GGTAATTTCGCAATAACACCCAACCCAGCGATCTCCCCGGCGGAGTCACCTAGTGCAG	8880 fluorescence intensity (a.u.)
ATATTACAAGTATATAATTATATGGAAGCAATTTTGTTGACGGAGTCACCTAGTGCAG	3460 fluorescence intensity (a.u.)
GGTGCAGGAGGAGGAGGGGAAAGAGCGGCGGGGAGAAGTTCGGAGTCACCTAGTGCAG	4920 fluorescence intensity (a.u.)
TTAAGTTAGAAACTGTAATTAATTTCGTTGCTGCGACGGTCGGAGTCACCTAGTGCAG	6310 fluorescence intensity (a.u.)
TAATTAATTGATTAATGACTAAACTTGGCCATCAACCGCTCGGAGTCACCTAGTGCAG	64800 fluorescence intensity (a.u.)
AAGTGATAGACAGTGAATCGAGGAAGATGGGTTGAGCCCACGGAGTCACCTAGTGCAG	23200 fluorescence intensity (a.u.)
CCTTAATTAATACTTCCTTCGGAACATTGTTTTGAGATGGCGGAGTCACCTAGTGCAG	48500 fluorescence intensity (a.u.)
GTGATTTGGTGATTGTATGGGGACTACTATTTAACGCACTCGGAGTCACCTAGTGCAG	29300 fluorescence intensity (a.u.)
CGAGTGATTTCCTATCACTCCAGCTGTCCCGCGTGTCCCCCGGAGTCACCTAGTGCAG	13400 fluorescence intensity (a.u.)
GTCATTTAATGACATTAGTTACTCCGTATTATCATGGTACCGGAGTCACCTAGTGCAG	3550 fluorescence intensity (a.u.)
TTTTAAATTGCTCGATTGGATTAGCTTGAAAATGTTTGGACGGAGTCACCTAGTGCAG	25600 fluorescence intensity (a.u.)
AATTAAATAAATTATAATTTATTTTATTGAGATTTGATTTCGGAGTCACCTAGTGCAG	41300 fluorescence intensity (a.u.)
